# Source: PubChem BioAssay AID1645882 (National Center for Advancing Translational Sciences (NCATS), 2021)
# Screen size: about 16,000 compounds; about 120 (0.75%) were called active. Not shown: some 4% with an inconclusive outcome. Calls follow the shape of the dose curve; as a rule, active = well fitted inhibition curve with a large enough effect; inconclusive = small, poorly fitted or top-dose-only effect; inactive = no such curve, though single readings can be large or run the other way. This is one part of the list.
# Target: Rap guanine nucleotide exchange factor 3 (Homo sapiens) (UniProt O95398)
# UniProt O95398, sequence (O95398 whole entry, looked up): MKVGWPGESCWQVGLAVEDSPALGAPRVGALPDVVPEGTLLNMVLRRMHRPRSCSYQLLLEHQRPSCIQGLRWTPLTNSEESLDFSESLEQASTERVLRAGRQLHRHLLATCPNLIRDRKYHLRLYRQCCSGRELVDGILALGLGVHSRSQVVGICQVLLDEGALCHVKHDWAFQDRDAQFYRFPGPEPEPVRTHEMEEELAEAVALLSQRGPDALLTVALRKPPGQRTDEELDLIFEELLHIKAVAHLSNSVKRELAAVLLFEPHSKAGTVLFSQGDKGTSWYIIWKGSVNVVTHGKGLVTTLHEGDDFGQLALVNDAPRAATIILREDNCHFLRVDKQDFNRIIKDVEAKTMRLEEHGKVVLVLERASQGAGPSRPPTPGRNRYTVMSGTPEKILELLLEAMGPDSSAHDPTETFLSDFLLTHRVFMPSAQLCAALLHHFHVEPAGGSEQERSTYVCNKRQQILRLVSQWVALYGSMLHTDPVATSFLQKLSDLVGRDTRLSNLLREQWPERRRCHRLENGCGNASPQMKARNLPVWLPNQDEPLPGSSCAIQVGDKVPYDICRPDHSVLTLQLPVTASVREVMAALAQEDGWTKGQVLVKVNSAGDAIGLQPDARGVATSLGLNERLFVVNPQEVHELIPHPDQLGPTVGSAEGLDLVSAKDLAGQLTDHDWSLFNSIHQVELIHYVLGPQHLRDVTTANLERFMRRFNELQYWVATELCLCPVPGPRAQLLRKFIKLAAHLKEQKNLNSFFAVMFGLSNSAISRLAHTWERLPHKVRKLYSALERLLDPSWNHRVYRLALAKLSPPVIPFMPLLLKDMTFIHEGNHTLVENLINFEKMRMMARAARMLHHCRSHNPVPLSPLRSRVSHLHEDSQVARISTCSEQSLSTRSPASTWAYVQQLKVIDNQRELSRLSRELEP
# Experiment: Validation qHTS for antagonist of cAMP-regulated guanine nucleotide exchange factor 3 (EPAC1); also: nearly all actives have a fitted effect of over 75% in size;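 as to activity change, negative = inhibition: plate controls were DMSO for no effect and ATA control for full effect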
# Conditions: EPAC1 Rap1B-BODIPY-GDP exchange, fluorescence; series mostly up to 150 µM; activity change, negative = inhibition: at the top concentration
# Summary of the method: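 Nucleotide exchange followed as fluorescence loss when BODIPY-GDP leaves Rap1B (480 nm excitation, 540 nm emission), read at 5 min intervals over 30 min. Reaction: 100 nM EPAC1, 250 nM RAP1B-BODIPY-GDP, 50 uM GDP; ATA and DMSO define normalization.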
# Potency is read from the fitted curve at half-maximal effect.
Structure (SMILES),"activity change, negative = inhibition",Potency
CCCN1CCC(=O)N([C@H](CSc2ccccc2)c2ccccc2)CC1,inactive: -10.4%,
O=C(CCc1cccnc1)NCC1Cc2cccc(-c3ncccn3)c2O1 (stereo not drawn),inactive: 16.3%,
CN(Cc1ccco1)c1ncncc1-c1cccc(C#N)c1,inactive: -5.6%,
COc1ccc(/C=C/C(=O)c2ccc(OC)cc2OC)cc1,inactive: -13.4%,
COc1cc2ncnc(Nc3ccc(F)c(Cl)c3)c2cc1OCCCN1CCOCC1,inactive: 22.4%,
CC(=O)NCCNc1nc(-c2cccnc2)nc2ccccc12,inactive: 1.96%,
Cc1cc2c(c(-c3nc4ccccc4s3)c1)OC(CNC(=O)c1occc1C)C2 (stereo not drawn),inactive: 6%,
Cc1cc(=O)[nH]c2ccc([N+](=O)[O-])cc12,inactive: 5.23%,
CCC1CN(CCNC(=O)C(C)(C)O)Cc2cc(OC)ccc2O1 (stereo not drawn),inactive: 9.58%,
C=CC(C)(O)CCCC(C)CCCC(C)CCCC(C)C (stereo not drawn),inactive: 6.5%,
OC[C@H]1NC[C@H](O)[C@@H](O)[C@H]1O,inactive: 10.2%,
Clc1cccc[n+]1CCCCCC[n+]1ccccc1Cl,inactive: 18.6%,
CN1CCC[C@@H]1CCO[C@](C)(c1ccccc1)c1ccc(Cl)cc1,inactive,
CCOc1ccc(NC(C)=O)cc1,inactive,
Cc1ccc(C)c(CN2C[C@H](Sc3nc4ccccc4[nH]3)C[C@H]2C(=O)N2CCCN(C)CC2)c1,inactive: 11.6%,
COc1cc(/C(C)=C/c2ccccc2)c2c(c1)oc1ccccc12,inactive: 4.59%,
O=C(O)C1CC[C@@](C(=O)O)(c2ccccc2)c2ccccc21 (stereo partly drawn),inactive: 11%,
C[C@@H]1CN(Cc2ccc3c(c2)CN(C(=O)CCc2nc4ccc(F)cc4[nH]2)CCO3)C[C@H](C)O1,inactive: 13.1%,
COc1ccc(-c2nc3cnc(N4CCNCC4)nc3n(CCc3ccccc3)c2=O)cc1,inactive: 16.4%,
CC(C)[C@H](N)C(=O)OCC(CO)OCn1cnc2c(=O)[nH]c(N)nc21 (stereo partly drawn),inactive: 7.62%,
CCC1COCCS(=O)(=O)N1Cc1ccccc1 (stereo not drawn),inactive: 16.9%,
COc1ccc(F)c(CN2CCOc3ccc(CN4CCC(Oc5cccnc5)CC4)cc3C2)c1,inactive: 17.4%,
COCC(=O)N1CCC2(CC1)CCN(c1cccc(-c3ccccc3)c1)CC2,inactive: -7.18%,
O=c1[nH]cnc2c1ncn2C1CC(O)C(CO)O1 (stereo not drawn),inactive: 16.4%,
c1cn(-c2cc(-c3ccc4c(c3)OCO4)ncn2)cn1,inactive: -4.82%,
COc1ccc(-c2cc(=O)c3c(O)c(OC)c(O[C@@H]4OC(COC5OC(C)C(O)C(O)[C@@H]5O)C(O)C(O)C4O)cc3o2)cc1 (stereo partly drawn),inactive: 8.31%,

Structure (SMILES),"activity change, negative = inhibition",Potency
CCN1CCC[C@H]1CNC(=O)c1c(O)c(Cl)cc(Cl)c1OC,inactive,
COc1ccc(OC)c(-c2cc(Cl)c3c(c2)CC(CNC(=O)C(C)N2CCOCC2)O3)c1 (stereo not drawn),inactive: 16.7%,
O=C(c1ccco1)N1CCC2(CC1)CCN(c1ccc(-c3ccccc3)cc1)CC2,inactive: 24.4%,
Cc1ccccc1CN1Cc2cccc3c2[C@H](C=CC3)CC1=O,inactive: 10.8%,
O=C(NCC1(N2CCOCC2)CCCC1)c1cnn(-c2nccc(-c3cccs3)n2)c1C1CC1,inactive: 18%,
Cn1c(=O)cnc2cnc(Oc3ccccc3)nc21,inactive: -0.0023%,
CCCCC[C@H](O)/C=C/[C@H]1[C@H](O)CC(=O)[C@@H]1CCCCCCC(=O)O,inactive,
CC(=O)Nc1ccc(C(=O)O)cc1,inactive: 0.746%,
CCC(=O)NCCC1CCc2ccc3c(c21)CCO3 (stereo not drawn),inactive: 4.42%,
Oc1ccc(C2Oc3cc(O)cc(O)c3CC2O)cc1 (stereo not drawn),inactive: 2.55%,
COc1cccc(Cn2c(=O)cnc3cncnc32)c1,inactive: -0.796%,
COc1ccccc1OC(=O)Oc1ccccc1OC,inactive: 2.96%,
O=C(O)c1cccnc1C(=O)O,inactive,
O=C1CCC(=O)N1CO,inactive: 7.5%,
CCCCN1CC[C@H]2C=CC[C@@H](C(=O)Nc3ccc(Cl)c(C(F)(F)F)c3)[C@H]2C1=O,inactive: -3.69%,
COc1cccc(Cn2c(=O)c(C)nc3cnc(N4CCOCC4)nc32)c1,inactive: -0.0576%,
Cc1cccc(CNc2ncnc3ccc(-c4ccccc4C#N)cc23)c1,inactive: 9.24%,
CC(=C(CCOC(=O)C(C)C)SSC(CCOC(=O)C(C)C)=C(C)N(C=O)Cc1cnc(C)nc1N)N(C=O)Cc1cnc(C)nc1N,inactive: -6.32%,
COc1cc(-c2ccc(C(F)(F)F)cn2)cc2c1OCCN(S(=O)(=O)C[C@]13CC[C@H](CC1=O)C3(C)C)C2,inactive: 4.08%,
O=C1OC2(c3ccccc31)c1cc(Br)c(O)c(Br)c1Oc1c2cc(Br)c(O)c1Br,inactive: -98.6%,
c1ccc2oc(C3=NCCN3)cc2c1,inactive: -5.72%,
COC(=O)c1ccccc1-c1cc(C)cc2c1OC(CNC(=O)c1cc(C)n(C)n1)C2 (stereo not drawn),inactive: 7.09%,
CC/C(=C(\c1ccccc1)c1ccc(OCCN(C)C)cc1)c1ccccc1,inactive,
NCc1ccc(S(N)(=O)=O)cc1,inactive,
O=C1/C(=C\c2cccs2)CCC/C1=C\c1cccs1,inactive: 16.8%,
Cc1cc[n+](CC(=O)c2ccc(F)cc2)c2ccccc12,inactive: 18.6%,

Structure (SMILES),"activity change, negative = inhibition",Potency
COCCNc1ccnc(-c2c(C)noc2C)n1,inactive: 21.2%,
CSc1ncccc1C(=O)NCC1Cc2cc(F)cc(-c3cncnc3)c2O1 (stereo not drawn),inactive: 3.34%,
COc1ccccc1CN1CCCC2(CCN(C(=O)c3cccc(F)c3)CC2)C1,inactive: 17.3%,
COc1ccc(-c2cn(Cc3ccc4c(c3)C(=O)c3ccccc3C4=O)nn2)cc1,inactive: -6.21%,
COCCn1c(=O)cnc2cnc(N3CCN(C)CC3)nc21,inactive: -6.2%,
CC(C)C[C@@H](CN=[N+]=[N-])N1CCN(CCc2ccccc2)CCC1=O,inactive: 8.21%,
COc1ccc(CN2CCOc3ccc(C(O)c4cccnc4)cc3C2)c(F)c1 (stereo not drawn),inactive: -9.79%,
CN(C)Cc1ccccc1-c1nccc(Nc2ccc(F)cc2)n1,inactive: 0.154%,
COc1cc(=O)n2c(c1C(=O)NCc1ccco1)CCN(Cc1ccc(F)cc1Cl)CC2,inactive: -4.96%,
CC(C)(C)NCC(O)c1cc(O)cc(O)c1 (stereo not drawn),inactive,
NS(=O)(=O)c1cc2c(cc1Cl)NC(CC1CCCC1)NS2(=O)=O (stereo not drawn),inactive: 12.6% [at 75.8 µM],
O=C(Nc1cc(C(=O)N2CCN(CCO)CC2)c2c(c1)ncn2C1CCCC1)c1ccccc1,inactive: 6.01%,
COc1ccc(NC(=O)N2CCCC3(CCN(C(=O)c4cnccn4)CC3)C2)cc1,inactive: 15.5%,
COc1ccc(Oc2ncc3nc(-c4cccs4)c(=O)n(Cc4cccs4)c3n2)cc1,inactive: 9.41%,
COC(=O)C1N[C@@H]([C@@H](NC(=O)COc2ccccc2)C(=O)NCc2ccccc2)SC1(C)C (stereo partly drawn),inactive: -3.25%,
CC(CN1c2ccccc2Sc2ccc(S(=O)(=O)N(C)C)cc21)N(C)C (stereo not drawn),inactive: 17.9%,
Cc1nc(NCc2cnn(C)c2)sc1-c1ccn(-c2cccc(F)c2)n1,inactive: 8.69%,
CC[N+](CC)(CC)CCOc1cccc(OCC[N+](CC)(CC)CC)c1OCC[N+](CC)(CC)CC,inactive,
O=C(O)C(O)[C@@](O)(Cc1ccc(O)cc1)C(=O)O (stereo partly drawn),inactive: 5.32%,
CCC1CN(CCNC(=O)c2cc(C)nn2CC)Cc2cc(OC)ccc2O1 (stereo not drawn),inactive: 2.62%,
C=C(c1ccc(C(=O)O)cc1)c1cc2c(cc1C)C(C)(C)CCC2(C)C,inactive: -4.79%,
O=C(c1cnccn1)N1CCC2(CCCN(c3ccc(-c4ccccc4)cc3)C2)CC1,inactive: 3.07%,
C#C[C@]1(O)CC[C@H]2[C@@H]3CCC4=C(CCC(=O)C4)[C@H]3CC[C@@]21C,inactive: 4.26% [at 75.8 µM],
C[C@@H]1[C@H](c2ccccc2)OCCS(=O)(=O)N1Cc1ccc(F)cc1,inactive: -7.77%,
COC(=O)C(N)Cc1ccc(Cl)cc1 (stereo not drawn),inactive: -9.17% [at 75.8 µM],
CCC(C)c1ccc(O[C@@H]2O[C@H](CO)[C@@H](O)[C@H](O)[C@H]2NC(C)=O)cc1 (stereo partly drawn),inactive: 19.1%,

Structure (SMILES),"activity change, negative = inhibition",Potency
O=c1c(-c2ccc(F)cc2)nc2cncnc2n1-c1ccccc1,inactive: 8.81%,
N[C@H](C(=O)O)[C@H]1C[C@@H]1C(=O)O,inactive,
CCOC(=O)C1=C(C)NC(c2ccccc2)=C(C(=O)OCc2ccc([N+](=O)[O-])cc2)[C@@H]1C#Cc1ccccc1,inactive: 4.77%,
Cc1nc2cnc(Nc3ccccc3)nc2n(C[C@H]2CCCO2)c1=O,inactive: -10.3%,
Cc1ccc2occ(CN3CCOc4ccc(C(C)(O)COc5ccccc5)cc4C3)c(=O)c2c1 (stereo not drawn),inactive: -22.2%,
C=C[C@@]1(C)CC(=O)[C@@]2(O)[C@@]3(C)[C@@H](O)CCC(C)(C)[C@@H]3[C@H](O)[C@H](OC(C)=O)[C@@]2(C)O1,inactive: -3.87%,
COc1ccc2[nH]cc(CCNc3ccnc(-c4c(C)noc4C)n3)c2c1,inactive: -28.2%,
OC(CN1CCCCC1)c1ccccc1 (stereo not drawn),inactive: 17.4%,
COc1ccc2cccc(N3CCN(CCNC(=O)c4ccc(F)cc4)CC3)c2c1,inactive: 0.118%,
O=C1CCC[C@@H]2Cc3nc4ccccc4cc3[C@@H]3CCN1[C@H]23,inactive: -2.6%,
CC[N+]1(CC(=O)c2ccc(Cl)cc2)CCCCC1,inactive: 12.3%,
Cc1ncc2c(c1CNC(=O)c1ccccc1F)CCN(C(=O)c1csc(-c3cccs3)n1)C2,inactive: 10.5%,
O=C(OCCOCCO)c1ccccc1Nc1cccc(C(F)(F)F)c1,inactive: -8.99% [at 75.8 µM],
COCCn1c(=O)c(-c2cc(F)cc(F)c2)nc2cnc(Oc3ccc(OC)cc3)nc21,inactive: 7.13%,
Cc1ncc2c(c1CNC(=O)c1ccc3c(c1)OCO3)CCN(C(=O)c1scc3c1CCCC3)C2,inactive: 15.5%,
c1ccc(-c2onc(-c3ccco3)c2-c2ccc3c(c2)OCO3)cc1,inactive: 8.27%,
CC1=C(C/C=C(\C)CCC[C@H](C)CCC[C@H](C)CCCC(C)C)C(=O)c2ccccc2C1=O,inactive: 6.86%,
O=C(O)c1cc2ccccc2c(Cc2c(O)c(C(=O)O)cc3ccccc23)c1O,,active: 50.1 µM
CCC1OC(=O)C[C@@H](O)[C@H](C)[C@@H](O[C@@H]2O[C@H](C)C[C@H](N(C)C)[C@H]2O)[C@@H](CC=O)C[C@@H](C)C(=O)/C=C/[C@]2(C)OC2C1C (stereo partly drawn),inactive,
O=C1[C@H]2[C@H](C=CC[C@H]2C(=O)N2CCOCC2)CCN1Cc1ccccc1,inactive: 19.6%,
CN(C)c1ccc(-c2ccc3ncnc(NCc4ccccc4)c3c2)cc1,inactive: 22.3%,
CCNc1ncc2nc(-c3cccs3)c(=O)n(-c3ccccc3)c2n1,inactive: 35.7%,
COc1ccc2c(=O)c(-c3ccccc3)coc2c1,inactive: 9.41%,
CC(=O)NCCNc1ncnc2ccc(-c3ccccc3Cl)cc12,inactive: 19.1%,
O=C(NCCc1ccccn1)c1cnn(-c2ncc3c(n2)-c2ccccc2CC3)c1C1CC1,inactive: -4.96%,
